Data as given in patent US20180194853A1 (published 2018).

T1: recombinant human γc (human, UniProt P31785 23-262)
T1 construct: Recombinant chain immobilised on the SPR chip and used as ELISA antigen; also called common γ chain; CD132
T1 sequence (looked up): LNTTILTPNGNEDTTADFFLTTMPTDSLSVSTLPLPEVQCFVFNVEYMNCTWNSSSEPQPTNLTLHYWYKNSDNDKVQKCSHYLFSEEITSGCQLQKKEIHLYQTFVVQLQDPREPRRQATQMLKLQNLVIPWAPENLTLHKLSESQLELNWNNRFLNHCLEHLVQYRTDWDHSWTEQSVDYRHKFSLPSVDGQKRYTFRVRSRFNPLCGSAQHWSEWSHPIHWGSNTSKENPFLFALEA

T2: recombinant human IL-2Rβ (human, UniProt P14784 27-240)
T2 construct: Recombinant chain immobilised on the SPR chip and used as ELISA antigen; also called CD122; interleukin 2 receptor β
T2 sequence (looked up): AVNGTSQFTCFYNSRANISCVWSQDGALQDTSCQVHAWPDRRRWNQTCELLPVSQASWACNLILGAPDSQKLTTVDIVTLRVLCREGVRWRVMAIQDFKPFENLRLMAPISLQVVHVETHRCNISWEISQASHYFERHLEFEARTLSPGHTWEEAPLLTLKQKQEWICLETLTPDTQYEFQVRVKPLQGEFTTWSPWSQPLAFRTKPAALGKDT

B1: bispecific anti-IL-2Rβ/γc antibody P2C4/P1A3 (bispecific antibody)
chain 1: EVQLVQSGAEVKKPGSSVKVSCKASGYTFTNYYMHWVRQAPGQGLEWMGAIMPSRGGTSYPQKFQGRVTMTGDTSTSTVYMELSSLRSEDTAVYYCARGEYYYDSSGYYYWGQGTLVTVSSGGGGSGGGGSGGGGSQSALTQPASVSGSPGQSIAISCTGTSSDIGHYDFVSWYQQHPGTAPKLIIYDINNRPSGISNRFSGSKSDNMASLTISGLQPEDEADYYCSAYTSSDTLVFGGGTKLTVLNSGAGTA[not shown - human IgG1 Fc with changes and a few adjoining residues]
chain 2: QVQLQQWGAGLLKPSETLSLTCAVYGGSFSGYYWSWIRQPPGKGLEWIGEINHSGSTNYNPSLKSRATISVDTSKNQFSLKLSSVTAADTAVYYCATSPGGYSGGYFQHWGQGTLVTVSSGGGGSGGGGSGGGGS[not shown - about 100 residues]YCMQGTHWPWTFGQGTKVEIKNSGAGTAAATHTCPPCPAPEAAGGPSVFLFPPKPKDTLMISRTPEVTCVVVDVSHEDPEVKFNWYVDGVEVHNAKTKPREEQYNSTYRVVSVLTVLHQDWLNGKEYKCKVSNKALPAPIEKTISKAKGQPREPQVCTLPPSRDELTKNQVSLSCAVKGFYPSDIAVEWESNGQPENNYKTTPPVLDSDGSFFLVSKLTVDKSRWQQGNVFSCSVMHEALHNHYTQKSLSLSPGK
notes: Knob-in-hole monovalent bispecific scFv-Fc on a human IgG1 Fc with LALA; also called anti-IL-2Rβ/γc bispecific antibody; Mega2; copies: 1 + 1
B2: bispecific anti-IL-2Rβ/γc antibody P2D12/P1A3 (bispecific antibody)
chain 1: HVQLVETGGGLVQPGGSLRLSCAASGFTFSSYAMSWVRQAPGKGLEWVSAISGSGGSTYYADSVKGRFTISRDNSKNTLYLQMNSLRAEDTAVYYCARDLGDYWGQGTLVTVSSGGGGSGGGGSGGGGSDIQLTQSPSSLSASVGDRVTITCQASQDIGNYLNWYQLKPGKAPKLLIYDASNLETGVPSRFSGSGSGTDFTFTISSLQPEDIATYYCLQLYDYPLTFGGGTKVEIKNSGAGTA[not shown - human IgG1 Fc with changes and a few adjoining residues]
chain 2: QVQLQQWGAGLLKPSETLSLTCAVYGGSFSGYYWSWIRQPPGKGLEWIGEINHSGSTNYNPSLKSRATISVDTSKNQFSLKLSSVTAADTAVYYCATSPGGYSGGYFQHWGQGTLVTVSSGGGGSGGGGSGGGGS[not shown - about 100 residues]YCMQGTHWPWTFGQGTKVEIKNSGAGTAAATHTCPPCPAPEAAGGPSVFLFPPKPKDTLMISRTPEVTCVVVDVSHEDPEVKFNWYVDGVEVHNAKTKPREEQYNSTYRVVSVLTVLHQDWLNGKEYKCKVSNKALPAPIEKTISKAKGQPREPQVCTLPPSRDELTKNQVSLSCAVKGFYPSDIAVEWESNGQPENNYKTTPPVLDSDGSFFLVSKLTVDKSRWQQGNVFSCSVMHEALHNHYTQKSLSLSPGK
B3: bispecific anti-IL-2Rβ/γc antibody P1G11/P1A3 (bispecific antibody)
chain 1: QVQLQQWGAGLLKPSETLSLTCAVYGGSFSGYYWSWIRQPPGKGLEWIGEINHSGSTNYNPSLKSRVTISVDTSKNQFSLKLSSVTAADTAVYYCARSSSGDAFDIWGQGTMVTVSSGGGGSGGGGSGGGGSNFMLTQPHSVSESPGKTVTISCTRSSGSIASNYVQWYQQRPGSSPTTVIFDDNQRPTGVPDRFSAAIDTSSSSASLTISGLTAEDEADYYCQSSHSTAVVFGGGTKLTVLNSGAGTA[not shown - human IgG1 Fc with changes and a few adjoining residues]
chain 2: QVQLQQWGAGLLKPSETLSLTCAVYGGSFSGYYWSWIRQPPGKGLEWIGEINHSGSTNYNPSLKSRATISVDTSKNQFSLKLSSVTAADTAVYYCATSPGGYSGGYFQHWGQGTLVTVSSGGGGSGGGGSGGGGS[not shown - about 100 residues]YCMQGTHWPWTFGQGTKVEIKNSGAGTAAATHTCPPCPAPEAAGGPSVFLFPPKPKDTLMISRTPEVTCVVVDVSHEDPEVKFNWYVDGVEVHNAKTKPREEQYNSTYRVVSVLTVLHQDWLNGKEYKCKVSNKALPAPIEKTISKAKGQPREPQVCTLPPSRDELTKNQVSLSCAVKGFYPSDIAVEWESNGQPENNYKTTPPVLDSDGSFFLVSKLTVDKSRWQQGNVFSCSVMHEALHNHYTQKSLSLSPGK

What follows are binders tested against T1, recombinant human γc (assay: SPR, receptor chain immobilised on the chip, antibody flowed over).
Procedure: (§1) Association/dissociation of the anti-IL-2Rβ/γc bispecific antibody to/from the receptor chains was measured in Surface Plasmon Resonance using recombinant IL-2Rβ or γc chains immobilised on a chip, and flowing various concentrations of the antibody over the surface.

Row | Kd [nM] | Binder
1 | 20.9 | B1
2 | 78.7 | B2
3 | 337 | B3

The binders below were run against T2, recombinant human IL-2Rβ in the same assay as above.
Procedure: as §1

Row | Kd [nM] | Binder
4 | 143 | B1
5 | 181 | B2
6 | 128 | B3
